From PubChem BioAssay AID1832 (Broad Institute, 2009)
Screen size: about 300,000 compounds; about 1,100 (0.37%) were called active. The shares of active, inactive and inconclusive entries below differ from those in the screen.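 How the source made its calls: active means inhibition past about -25% in most replicates, and total fluorescence under double the plate's negative control median (limit read from the data); inconclusive means replicates evenly split on the limit, or fluorescence at least double controls; inactive means too little inhibition in most replicates.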 More than one record can exist for a structure, and the calls need not agree.

Molecular target: Zinc finger protein mex-5 (Caenorhabditis elegans) (UniProt Q9XUB2)
Experiment: MEX-5 zinc finger RNA-binding disruptors – biochemical, C. elegans, fluorescence polarization, MLPCN library, primary screen (AID 1832);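 further: 0% = DMSO and -100% = 5 µM competing unlabeled TCR2 RNA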
Details: MEX-5/FITC-TCR2 RNA binding, at 10 µM, stronger effect = lower value

Sequence of UniProt Q9XUB2 (Q9XUB2 whole entry, looked up): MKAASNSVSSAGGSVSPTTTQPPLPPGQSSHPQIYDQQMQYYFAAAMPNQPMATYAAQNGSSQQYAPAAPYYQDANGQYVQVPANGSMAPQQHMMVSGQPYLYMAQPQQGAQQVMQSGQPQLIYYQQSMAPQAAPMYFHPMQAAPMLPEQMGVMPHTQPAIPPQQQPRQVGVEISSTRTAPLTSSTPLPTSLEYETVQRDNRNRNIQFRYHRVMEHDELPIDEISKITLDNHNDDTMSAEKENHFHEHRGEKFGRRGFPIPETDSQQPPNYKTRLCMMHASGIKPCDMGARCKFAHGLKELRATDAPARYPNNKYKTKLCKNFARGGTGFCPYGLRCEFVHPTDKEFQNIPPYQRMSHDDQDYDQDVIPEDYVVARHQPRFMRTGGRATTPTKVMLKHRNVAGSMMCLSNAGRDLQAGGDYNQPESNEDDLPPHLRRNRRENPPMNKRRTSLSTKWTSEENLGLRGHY

Row | Compound | activity score (negative = inhibition of binding)
1 | CN1C(=O)CN=C(c2ccccc2Cl)c2cc(Br)ccc21 | inactive: 0.984%
2 | COc1ccc(N2C(=O)NC(=O)/C(=C\c3ccccc3[N+](=O)[O-])C2=O)cc1 | inactive: 0.996%
3 | CCN1C(=O)NC(=O)/C(=C\c2cn(CC(=O)N3CCCCC3)c3ccccc23)C1=O | inconclusive: -76.4% [fluorescent]
4 | COc1ccc(N2C(=O)/C(=C/c3ccco3)C(=O)NC2=S)cc1 | active: -95.1%
5 | Cc1cccc(-n2c(O)c(/C=C/C=Nc3ccccc3)c(=O)[nH]c2=O)c1 | inconclusive: 49.9% [fluorescent]
6 | Cc1sc(-n2c(C)cc(C=C3C(=O)NC(=O)NC3=O)c2C)c(C#N)c1C | inconclusive: -23.9%
7 | CN1CCN(c2ccc([N+](=O)[O-])c3no[n+]([O-])c23)CC1 | active: -60.4%
8 | O=C(N/N=C/c1c(O)n(Cc2ccccc2)c(=O)[nH]c1=O)c1ccccc1O | active: -35.7%
9 | COc1ccc(-n2c(O)c(/C=C3\C=Nc4ccc(Br)cc43)c(=O)[nH]c2=O)cc1 | inconclusive: -94% [fluorescent]
10 | O=C(N/N=C/c1c(O)n(Cc2ccc(F)cc2)c(=O)[nH]c1=O)c1ccccc1O | inconclusive: -24.7%
11 | O=C(O)Cn1cc(/C=C2\C(=O)NC(=O)N(c3ccc(Cl)cc3)C2=O)c2ccccc21 | inconclusive: -73.1% [fluorescent]
12 | COc1ccc(P2(=O)Nc3ccccc3N2)cc1 | active: -35.7%
13 | CCOP(=O)(C#Cc1ccccc1)C(O)c1ccc(Br)cc1 (configuration not stated) | inactive: 1.43%
14 | CN1C(=O)C(=Cc2cn(CC(=O)N3CCCC3)c3ccccc23)C(=O)N(C)C1=O | inconclusive: -24.8%
15 | Nc1ccc2nonc2c1[N+](=O)[O-] | inconclusive: -122% [fluorescent]
16 | CN1C(=O)C(=Cc2sc(=O)n(-c3ccccc3)c2N(C)C)C(=O)N(C)C1=O | inconclusive: -23.8%
17 | O=C(N/N=C/c1c(O)n(C2CC2)c(=S)[nH]c1=O)c1ccccc1O | active: -59.5%
18 | CCC(C)n1c(O)c(/C=N/Nc2nc3c(c(=O)n(C)c(=O)n3C)n2C)c(=O)[nH]c1=S (configuration not stated) | inconclusive: -22.1%
19 | O=[N+]([O-])c1cc(-c2ccc([As](=O)(O)O)cc2)ccc1[As](=O)(O)O | active: -46.3%
20 | Cn1cnc(CCN)c1 | inactive: 1.23%
21 | CCCn1cc2c3c(cccc31)C1CC(C)CN(C)C1C2 (configuration not stated) | active: -26.9%
22 | CCOc1ccc(-n2c(O)c(C=Nc3ccc(N4CCOCC4)cc3)c(=O)[nH]c2=O)cc1 | inconclusive: -19.5%
23 | CCc1ccccc1N1C(=O)/C(=C/c2ccc(N3CCN(C)CC3)o2)C(=O)NC1=S | inconclusive: 84.8% [fluorescent]
24 | CN(C)C1C(=O)C(C(N)=O)=C(O)C2(O)C(=O)C3=C(O)c4c(O)cccc4C(C)(O)C3CC12 (configuration not stated) | inconclusive: -23.2%
25 | Nc1ccc2ccc3cccc[n+]3c2c1 | inconclusive: -157% [fluorescent]
26 | O=c1[nH]c(=O)n(C2CCCCC2)c(O)c1/C=C/C=Nc1ccccc1 | inconclusive: 31.5% [fluorescent]

Row | Compound | activity score (negative = inhibition of binding)
27 | CC(=O)c1ccc(OCC(=O)N2CCCC(N(C)Cc3ccccc3)C2)cc1 (configuration not stated) | inactive: 0.793%
28 | O=C1NC(=O)N(c2ccccc2)C(=O)/C1=C/c1ccc([N+](=O)[O-])s1 | active: -35.6%
29 | CC/C(=C\C=C\[C@@H]1C=C[C@@H]2CCC[C@H]2[C@@H]1C(=O)c1ccc[nH]1)[C@@H]1O[C@@H]([C@@H](C)C(=O)O)CC[C@@H]1C | inconclusive: -22.5%
30 | CCOC(=O)c1c(/N=C/C2C(=O)NC(=S)NC2=O)sc(C)c1C | inconclusive: -22.4%
31 | O=c1[nH]c(=O)n(-c2ccc(F)cc2)c(O)c1/C=C1\C=Nc2ccccc21 | active: -36.5%
32 | Cc1ccc(Sc2ccc(C=C3C(=O)N(C)C(=O)N(C)C3=O)o2)cc1 | inconclusive: -19.6%
33 | C=CCN1C(=O)/C(=C/c2ccc(N3CCOCC3)o2)C(=O)NC1=S | inconclusive: 49.7% [fluorescent]
34 | CCN1C(=O)NC(=O)/C(=C\c2cn(CC(=O)O)c3ccccc23)C1=O | inconclusive: -16.8%
35 | COc1ccccc1-n1c(O)c(/C=C2\C=Nc3ccccc32)c(=O)[nH]c1=O | active: -35.1%
36 | Cc1cc(C=C2C(=O)N(C)C(=S)N(C)C2=O)c(C)n1C1CCCC1 | inconclusive: -21.7%
37 | Cc1cccc(-n2c(/C=C/c3ccc([N+](=O)[O-])o3)nc3ccccc3c2=O)c1 | inconclusive: -11.4%
38 | CCN(CC)c1ccc(N=Cc2c(O)n(Cc3ccccc3)c(=O)[nH]c2=O)cc1 | active: -29.5%
39 | COCCNC(=O)Cn1cc(C=C2C(=O)NC(=O)NC2=O)c2ccccc21 | inconclusive: -132% [fluorescent]
40 | CCc1ccc(N2C(=O)NC(=O)/C(=C\c3cccn3CCOc3ccc(C(C)C)cc3)C2=O)cc1 | active: -36.1%
41 | O=c1[nH]c(=O)n(Cc2ccccc2)c(O)c1/C=C1\C=Nc2ccccc21 | inconclusive: -25.4%
42 | CN1C[C@H](CO)C=C2c3cccc4[nH]cc(c34)C[C@H]21 | inconclusive: -20.9%
43 | CCN(CC)c1ccc(/C=C2\C(=O)NC(=S)N(c3ccc(OC)cc3OC)C2=O)o1 | inconclusive: 79.5% [fluorescent]
44 | Cc1cc(/C=C2\C(=O)NC(=O)N(c3ccc(Br)cc3)C2=O)c(C)n1C | inconclusive: -24.8%
45 | Cc1cc(N2CCCC2)ccc1C=C(C#N)C#N | inconclusive: -11.7%
46 | CCn1c(O)c(C=Nc2ccc(N3CCOCC3)cc2)c(=O)n(CC)c1=S | inconclusive: -71.8% [fluorescent]
47 | O=c1[nH]c(O)c(/C=C2\C=Nc3ccc(OCc4ccccc4)cc32)c(=O)[nH]1 | inconclusive: 4.1% [fluorescent]
48 | O=C(N/N=C/C1C(=O)NC(=S)N(c2ccccc2)C1=O)c1cc(Br)c(O)c(Br)c1 (configuration not stated) | active: -79.5%
49 | CCN1/C(=C\C=C\C2=[N+](CC)c3ccccc3C2(C)C)C(C)(C)c2ccccc21 | inconclusive: 43.9% [fluorescent]
50 | O=C(O)Cn1cc(/C=C2\C(=O)NC(=O)N(c3ccc(Br)cc3)C2=O)c2ccccc21 | inconclusive: -45.4% [fluorescent]
51 | CCc1ccc(N2C(=O)NC(=O)/C(=C\c3cc(C)n(-c4cc(C(=O)O)cc(C(=O)O)c4)c3C)C2=O)cc1 | inactive: -1.99%
52 | O=C(N/N=C\C1C(=O)NC(=S)N(c2ccccc2)C1=O)c1ccc(O)cc1 (configuration not stated) | inconclusive: -24.7%

Row | Compound | activity score (negative = inhibition of binding)
53 | Cc1cc(C)cc(N2C(=O)NC(=O)/C(=C\c3cc(C)n(C)c3C)C2=O)c1 | inconclusive: -23.3%
54 | O=C1NC(=O)N(c2ccc3c(c2)OCO3)C(=O)/C1=C/c1ccc(N2CCCC2)o1 | inconclusive: 76% [fluorescent]
55 | COc1ccc(Cn2c(O)c(/C=N/NC(=O)c3ccccc3O)c(=O)[nH]c2=O)cc1 | inconclusive: -23.6%
56 | COC(=O)[C@@]1(C#N)[C@@H]2C=CC(C(C)=O)=CN2[C@@H](C(N)=O)[C@@H]1c1ccc(F)cc1 | active: -56.7%
57 | CCN1C(=O)NC(=O)/C(=C\c2cn(CC(=O)N3CCCC3)c3ccccc23)C1=O | inconclusive: -120% [fluorescent]
58 | CN(C)C(=O)Oc1ccc2c(c1)O/C(=C\c1cccc(Cl)c1)C2=O | inactive: 1.18%
59 | Cc1cccc(N2C(=O)CC(=O)NC2=O)c1 | inactive: 0.875%
60 | O=C(N[C@H]1CP(=O)(Oc2ccccc2)O[C@H](COCc2ccccc2)[C@H]1O)C(Cl)(Cl)Cl (some centres not stated) | inconclusive: -14%
61 | COc1cccc(N2C(=O)NC(=O)/C(=C/c3ccc([N+](=O)[O-])s3)C2=O)c1 | inconclusive: -23.1%
62 | Cc1c(N=Cc2c(O)n(Cc3ccco3)c(=O)[nH]c2=O)c(=O)n(-c2ccccc2)n1C | inconclusive: -22.4%
63 | CC[n+]1c(/C=C/C=C/c2ccc(N(C)C)cc2)sc2ccccc21 | active: -28.5%
64 | COc1cccc(CNCCc2ccc(F)cc2)c1 | inactive: -1.96%
65 | CC1=CC(=C2C(=O)NC(=S)NC2=O)C=C(C(F)(F)F)N1Cc1ccccc1 | inconclusive: -21.6%
66 | Cn1cc(C=C2C(=O)NC(=O)NC2=O)c2ccccc21 | inconclusive: -19.7%
67 | COc1cc(N)c(Cl)cc1C(=O)NC1CN2CCC1CC2 (configuration not stated) | inconclusive: -12.8%
68 | Cc1cccc(-n2c(O)c(/C=N/Nc3nc4c(c(=O)n(C)c(=O)n4C)n3C)c(=O)[nH]c2=S)c1 | active: -46.9%
69 | COc1ccc2c(c1)NP(=S)(Oc1ccccc1)N2 (configuration not stated) | active: -46.5%
70 | CCOC(=O)Cn1cc(C=C2C(=O)N(C)C(=O)N(C)C2=O)c2ccccc21 | inconclusive: -105% [fluorescent]
71 | CCc1ccc(N2C(=O)NC(=O)/C(=C/c3cccn3CCOc3ccc(C(C)CC)cc3)C2=O)cc1 (configuration not stated) | inconclusive: -23.8%
72 | Cc1cc2c(C(F)(F)F)cc(=O)oc2c2c1NCCC2 | inactive: -0.586%
73 | O=c1[nH]c(=O)n(-c2ccccc2)c(O)c1/C=C/C=Nc1ccccc1 | inconclusive: 49.6% [fluorescent]
74 | O=[N+]([O-])c1ccc(N2CCCCCC2)c2nonc12 | inconclusive: -56.2% [fluorescent]
75 | Nc1cc2nc3ccccc3nc2cc1N | inconclusive: -111% [fluorescent]
76 | CN1CCc2cc3c(c4c2C1Cc1ccccc1-4)OCO3 (configuration not stated) | inconclusive: -21.3%
77 | CCOC(=O)C1CCCN(c2ccc([N+](=O)[O-])c3nonc23)C1 (configuration not stated) | inconclusive: -99.7% [fluorescent]
